The whole screen tested about 48,000 compounds, of which about 1,200 (2.5%) were called active. About 2% were inconclusive and are not listed.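 Rule for the calls: active = activation of at least 60% and not above a set upper limit (about 1 call in 100 departs from these limits); inconclusive = activation of 40% to 60%, or above that upper limit; inactive = activation under 40%.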 This is one part of the list.

We go through 55 compounds from PubChem BioAssay AID1346428 (National Center for Advancing Translational Sciences (NCATS), 2018).

This assay deals with Probable G-protein coupled receptor 32 (Homo sapiens) (UniProt O75388). Kind of assay: qHTS for Agonists of Human Resolvin D1 Receptor DRV1. Note: 0% is about no effect. The following applies: CHO-K1 GPR32 beta-arrestin PathHunter luminescence, 90 min; at 76.9 µM; stronger effect = higher value; zero percent set by DMSO-only wells. An outline of the steps: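 Luminescent readout of beta-Gal complementation quantifies ligand-induced beta-arrestin association with GPR32 in CHO-K1 cells; 90 min compound incubation at 37 °C, detection 1 h at room temperature.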
Sequence of UniProt O75388 (O75388 whole entry, looked up): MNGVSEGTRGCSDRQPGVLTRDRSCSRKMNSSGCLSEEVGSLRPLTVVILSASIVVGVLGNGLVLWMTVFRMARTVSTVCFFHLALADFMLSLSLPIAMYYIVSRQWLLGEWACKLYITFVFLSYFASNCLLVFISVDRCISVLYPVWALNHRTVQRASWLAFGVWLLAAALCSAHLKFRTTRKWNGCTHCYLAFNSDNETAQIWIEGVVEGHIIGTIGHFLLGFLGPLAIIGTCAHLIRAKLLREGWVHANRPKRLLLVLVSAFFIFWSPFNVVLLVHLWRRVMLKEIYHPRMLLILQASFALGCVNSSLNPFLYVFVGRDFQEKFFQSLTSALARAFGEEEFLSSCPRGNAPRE
Turning to `Cc1cccc(C(=O)N(Cc2ccco2)Cc2ccccc2F)c1`, the activation is inactive: -36%.
In the case of `CC1CCCCN1C(=O)CSc1n[nH]c(-c2ccccc2)n1` (stereo not given) it was inactive: -3.36%; in that of `CC(=O)c1cccc(-n2c(=O)c3c4c(sc3n(CC(=O)c3ccc(Cl)cc3)c2=O)CN(C(C)=O)CC4)c1`, inactive: -3.9%; in that of `CCOc1cc(C(=O)Nc2ccc(-c3nc4cc(Cl)ccc4o3)cc2)cc(OCC)c1OCC`, inactive: -3.45%.
Regarding `O=c1[nH]c(C2CCCN(S(=O)(=O)c3ccccc3Cl)C2)nc2c1nnn2Cc1ccc(OC(F)(F)F)cc1` (stereo not given), the activation was inactive: -6.9%.
With `Cn1cc(C(=O)NCCc2ccc(Cl)cc2)c(=O)c2cc(S(=O)(=O)N3CCOCC3)ccc21`, the activation was inactive: -3.17%.
As for `COc1ccc(CNC(=O)CCCc2nnc3n(CCC(C)C)c(=O)c4sccc4n23)cc1`, the activation is inactive: -9.72%.
With `O=C(Nc1cccc(Cl)c1)c1cc(-c2ccccc2)on1`, the activation was inactive: 18.3%.
In the case of `CCc1nn(CCCC(=O)N2CCN(c3ccc(OC)cc3)CC2)c(=O)c2cc3occc3n12` it was inactive: 3.24%; in that of `COc1ccc(CCNC(=O)c2ccc3c(c2)c(C)c(C)n3Cc2ccccc2)c(OC)c1OC`, inactive: -17.5%; in that of `Cc1ccc(CCNC(=O)C2CC(=O)N(CCc3ccccc3)C2)cc1` (stereo not given), inactive: 1.07%.
Under `Cc1cccc(N2CCN(C(=O)Cn3ncc4c3-c3ccccc3OC4)CC2)c1C` stands inactive: 36.1%.
On to `CCOc1ccc(Nc2ncnc3c2nc2n3CCCCC2)cc1`, for which the activation was active: 85.1%.
Under `COc1ccc(NC(=O)C2CCC(CNS(=O)(=O)c3ccc4c(c3)C(C)(C)C(=O)N4C)CC2)cc1` (stereo not given) stands inactive: -0.475%.
In the case of `Cc1cc(CC(=O)O)c(C)n1-c1ccc(Cl)cc1` it was inactive: -0.454%; in that of `Cn1cnc(S(=O)(=O)N2CCC(C(=O)Nc3ccc(C#N)cc3)CC2)c1`, inactive: -11.6%.
Under `Clc1cccc(N2CCN(c3c4c(nc5nncn35)CCC4)CC2)c1` stands inactive: 19.4%.
With `N#Cc1ccccc1Cn1c(SCC(=O)Nc2ccc(F)cc2)nc2ccccc21`, the activation is inactive: -0.201%.
Take `O=C(COc1ccccc1)Nc1ccc2nc(SCC(=O)N3CCc4ccccc43)sc2c1`: the activation is inactive: -4.68%.
Under `CCOc1ccc(C(=O)Nc2onc3c2CCCC3)cc1` stands inactive: 38.6%; under `CCc1nnc(SCc2ccc(F)cc2Cl)c2cc3sc(C)cc3n12`, inactive: -25.7%.
Under `CC(=O)c1ccc(NC(=O)c2nc(-c3ccccc3)n(-c3ccccc3Cl)n2)cc1` stands inactive: -9.34%; under `COc1ccc(CNCCCSc2nnnn2C)c(OC)c1`, inactive: -4.54%; under `CCC(=O)N1CCc2cc(S(=O)(=O)NCCC(=O)Nc3ccc(C)cc3)ccc21`, inactive: 12.3%.
Under `CCCNC(=O)CCNS(=O)(=O)c1ccc2c(c1)c(=O)n(C)c(=O)n2C` stands inactive: -20.8%; under `CC(=O)c1ccc(NS(=O)(=O)c2cc(-c3cc(C)no3)ccc2C)cc1`, inactive: -5.6%; under `CC(=O)c1cccc(Nc2ccc3cc(S(=O)(=O)N4CCC(C)CC4)ccc3n2)c1`, inactive: -0.129%.
For `O=C(COc1ccccc1-c1nnc(-c2ccccc2)o1)Nc1ccc(Br)cc1F`, the activation is inactive: 10.7%.
For `Cc1ccc(CNC(=O)CCc2c(C)nc3nc(CNC(=O)OC(C)(C)C)nn3c2C)cc1`, the activation was inactive: 7.05%.
Under `CC(C)c1ccc(-c2nnc3n(CCc4ccccc4)c(=O)c4ccccc4n23)cc1` stands inactive: 45.6%; under `Cc1cccc(NCc2nc3ccccc3n2CCOc2ccccc2C)c1`, inactive: -37.9%; under `COc1cc(C(=O)n2nc(-c3ccco3)nc2NCc2ccc(Cl)cc2)cc(OC)c1OC`, inactive: -0.226%.
In the case of `COc1ccc(NC(=O)c2c(C)oc3ccc(O)c(CN4CCCC4)c23)cc1Cl` it was inactive: 26.6%; in that of `COc1ccc(C(=O)NCC(c2ccc(N(C)C)cc2)N2CCCC2)c(OC)c1` (stereo not given), inactive: -8.62%; in that of `Cc1cccc(-c2nc(CSc3nncn4c3cc3oc(C)cc34)c(C)o2)c1`, inactive: -16.2%.
With `Cc1ccc2nc(-c3ccc(Cl)cc3)cc(C(=O)OCC(=O)c3ccccc3)c2c1`, the activation is inactive: -0.765%.
Under `CCSc1ncc(Cl)c(C(=O)Nc2c(C(=O)Nc3cccc(C)c3)oc3ccccc23)n1` stands inactive: -7.39%; under `CCC(C(=O)NC1CCCCC1)n1c(SCc2ccc(F)cc2)nc2ccncc21` (stereo not given), inactive: -11.8%; under `CCc1ccc(C2Sc3ccccc3NC3=C2C(=O)c2ccccc23)cc1` (stereo not given), inactive: -58.5%.
Take `CC1CCC(NC(=O)C2(C)Cc3ccccc3C(=O)N2Cc2ccc(F)cc2)CC1` (stereo not given): the activation was inactive: -18.4%.
Take `COc1ccc(C(=O)NCCc2sc(-c3ccc(F)cc3)nc2C)cc1OC`: the activation was inactive: 4.51%.
In the case of `COc1ccc(NC(=O)c2sc3nc4c(cc3c2N)CN(Cc2ccccc2)CC4)cc1` it was inactive: 10.3%; in that of `CCC(Cn1nnc2ccccc2c1=O)NC(=O)Nc1ccc(C)cc1C` (stereo not given), inactive: -25%.
In the case of `COc1ccc2c(c1)cc1c(=O)n(CC(=O)NCc3ccco3)nc(C)n12` it was inactive: -11.3%; in that of `COc1ccccc1N(CC(=O)NCCSCc1ccccc1)S(C)(=O)=O`, inactive: -6.29%.
Under `CCCCc1nn2c(=O)cc(COC(=O)c3cccc(OC)c3)nc2s1` stands inactive: -3.74%; under `CCc1nnc2c(Nc3cccc(C(C)=O)c3)nc3ccccc3n12`, inactive: -7.66%.
On to `COc1ccc(-c2cc(C(F)(F)F)nc(SCC(=O)NCc3ccc(OC)c(OC)c3)n2)cc1`, for which the activation was inactive: -6.81%.
In the case of `COc1ccc(-c2onc(C)c2C)cc1S(=O)(=O)NCc1ccco1` it was inactive: -12.4%; in that of `CCc1ccc(CNC(=O)c2ccc3c(c2)nc2n3CCC(C)C2)cc1` (stereo not given), inactive: -19.2%.
In the case of `COc1cccc(C(=O)Nc2cccc(OCc3cc(=O)n4cc(C)ccc4n3)c2)c1` it was inactive: -5.78%; in that of `CCOc1ccc(C(=O)NCc2ccc3c(c2)CCN3C(=O)c2ccccc2)cc1`, inactive: -35.2%; in that of `COc1ccc(NC(=O)CN2C(=O)COc3ccc(S(=O)(=O)Nc4ccccc4)cc32)cc1`, inactive: -17.4%.
Regarding `CCOC(=O)CN1C(=O)c2ccccc2Sc2ncccc21`, the activation is inactive: -6.67%.
For `CCCCc1nn2c(=O)cc(COC(=O)COc3ccc(C)cc3)nc2s1`, the activation is inactive: 2.24%.
